Source: PMC4336329 (PLoS ONE, 2015)
The whole screen tested about 310,000 compounds, of which about 2,200 (0.71%) showed an effect of 50% or more. The effect is printed as a negative number. The list shows a part of the results.

Each compound was assayed against human ether-à-go-go-related gene (hERG) potassium channel (human, UniProt Q12809) (assay: primary screen, population patch clamp on CHO cells stably expressing hERG).
Chain of human ether-à-go-go-related gene (hERG) potassium channel (Q12809 whole entry, looked up): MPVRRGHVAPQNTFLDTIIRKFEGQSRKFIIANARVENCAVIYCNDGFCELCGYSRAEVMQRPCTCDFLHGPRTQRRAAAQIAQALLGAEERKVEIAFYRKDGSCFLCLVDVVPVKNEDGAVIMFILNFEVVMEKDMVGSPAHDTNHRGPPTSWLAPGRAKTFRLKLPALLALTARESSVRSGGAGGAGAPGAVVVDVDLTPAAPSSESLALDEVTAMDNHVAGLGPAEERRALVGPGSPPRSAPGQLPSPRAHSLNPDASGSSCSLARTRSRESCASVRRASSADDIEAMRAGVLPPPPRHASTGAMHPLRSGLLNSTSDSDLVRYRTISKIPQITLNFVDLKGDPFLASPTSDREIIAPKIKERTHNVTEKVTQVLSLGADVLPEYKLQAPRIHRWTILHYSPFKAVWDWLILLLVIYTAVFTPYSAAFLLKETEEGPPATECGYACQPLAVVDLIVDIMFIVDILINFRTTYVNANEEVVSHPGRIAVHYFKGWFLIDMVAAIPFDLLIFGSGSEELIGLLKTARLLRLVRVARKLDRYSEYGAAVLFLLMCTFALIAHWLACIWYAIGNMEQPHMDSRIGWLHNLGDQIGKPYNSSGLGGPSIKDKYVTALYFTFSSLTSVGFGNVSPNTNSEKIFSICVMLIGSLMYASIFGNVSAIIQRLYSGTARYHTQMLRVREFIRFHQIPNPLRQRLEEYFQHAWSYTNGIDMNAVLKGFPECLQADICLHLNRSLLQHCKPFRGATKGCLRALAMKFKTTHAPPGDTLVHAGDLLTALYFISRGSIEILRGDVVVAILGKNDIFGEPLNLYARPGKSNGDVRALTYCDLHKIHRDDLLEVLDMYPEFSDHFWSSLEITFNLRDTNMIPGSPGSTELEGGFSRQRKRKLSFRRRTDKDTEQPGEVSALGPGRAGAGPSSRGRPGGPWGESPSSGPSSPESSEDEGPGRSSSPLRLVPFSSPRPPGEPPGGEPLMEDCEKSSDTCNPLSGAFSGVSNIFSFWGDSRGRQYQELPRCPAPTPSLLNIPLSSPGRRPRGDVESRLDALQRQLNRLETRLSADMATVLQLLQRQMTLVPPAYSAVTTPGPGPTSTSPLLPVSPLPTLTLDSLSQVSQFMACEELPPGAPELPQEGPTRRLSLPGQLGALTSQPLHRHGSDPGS

Compound	hERG current change (%, negative = inhibition) at 1uM
CC(C)c1ccc(C(=O)CSc2ncn[nH]2)cc1	10.6%
Cc1cccc(Cn2cc(SCC(=O)Nc3nccs3)c3ccccc32)c1	8.48%
C/C(Cn1nnc2ccccc21)=N/OC(=O)c1c(F)cccc1F	13.4%
CCOc1c2ccc(C(=O)NCc3cc(C(F)(F)F)cc(C(F)(F)F)c3)cc2nn1C	15.2%
CN(CC1CCOCC1)C(=O)CC1C(=O)NCCN1CC(c1ccccc1)c1ccccc1 (stereo not drawn)	8.73%
CCc1ccc(NC(=O)CSc2nnc(-c3cnccn3)n2C)cc1	12.7%
Cc1ncc([N+](=O)[O-])n1CC(=O)NC1CCCCCC1	1.93%
O=S1(=O)CCC(=Nc2ccc(Cl)cc2)c2ccsc21	8.83%
O=C(O)COc1ccc(S(=O)(=O)N2CCCC2)cc1	16.2%
Cc1cc(C)nc(SCCn2c(N3CCCCC3)nc3c2c(=O)n(C)c(=O)n3C)n1	15.6%
COc1cc(C(=O)NNC(=O)c2ccoc2C)cc(OC)c1OC	14.6%
Cc1cc2cc(CNC(=S)Nc3ccc(OC(F)F)cc3)ccc2[nH]1	13.1%
CCOC(=O)c1ccccc1NC(=O)c1nc2nccc(C)n2n1	-4.25%
COc1cccc(NC(=O)COC(=O)c2ccc(C)c(S(=O)(=O)N3CCCCC3)c2)c1	2.86%
O=C(Oc1ccc(Br)cc1C(=O)/C=C/c1ccccc1F)c1ccco1	12.6%
Cc1ccc(O)c(-c2[nH]ncc2C(=O)c2ccc(Cl)cc2)c1	14.5%
COc1ccc(CC(=O)N(C)Cc2cccc(F)c2)cc1S(=O)(=O)N1CCOCC1	9.56%
CCCCC(=O)N1CC(=O)Nc2ccc(F)cc2C1c1ccc(F)cc1 (stereo not drawn)	13.7%
COc1ccc(-c2cc(N3C(=O)Nc4ccccc4N3O)n[nH]2)cc1OC	4.3%
Cc1ccc(CNC(=S)N2CCOCC2)cc1	16.5%
CCOc1[nH]n(-c2ccccc2)c(=O)c1C=Nc1ccc(OC)cc1	11.2%
CC1CCCCC1NC(=O)COC(=O)/C=C/c1ccco1 (stereo not drawn)	2.83%
Cc1cccc(NC(=O)C2CCN(S(=O)(=O)c3c(C)nn(C)c3C)CC2)n1	13.6%

Compound	hERG current change (%, negative = inhibition) at 1uM
O=C(Nc1cc(Cl)ccc1-n1cncn1)c1cc(F)c(F)c(F)c1F	-8.93%
Cc1c(C=O)c2ccccn2c1C(=O)c1ccccc1Cl	9.3%
CC(=O)Nc1ccc2c(c1)nc(CCNC(=O)c1ccccc1)n2C	11.6%
CC(C)c1ccc(C(=O)OCC(=O)NC2CCCC2)cc1	15.2%
O=C(Nc1ccccc1C(F)(F)F)N1CCC(n2c(=O)[nH]c3ccccc32)CC1	7.45%
O=C(Cn1nc(Cl)nc1Cl)Nc1ccccc1	2.75%
COc1ccc(C(=O)Nc2ccc(S(=O)(=O)Nc3nccc(C)n3)cc2)cc1[N+](=O)[O-]	14.2%
CC(CCc1ccc(O)cc1)NCCc1ccc(O)c(O)c1.Cl (stereo not drawn)	2.55%
CS(=O)(=O)NNC(=O)c1csc(Cc2c(Cl)sc3ccc(Cl)cc23)n1	13%
CC(C)C(NC(=O)c1ccc(C(C)(C)C)cc1)C(=O)NCC(c1ccccc1)N(C)C (stereo not drawn)	5.09%
Cc1cc(C)nc(SSc2nc(C)cc(C)n2)n1	12.8%
O=C(NC(c1ccccc1)c1ccccn1)c1cccc([N+](=O)[O-])c1 (stereo not drawn)	12.3%
COc1ccc(CCN2C(=O)CSC2c2ccc(OC)c(OC)c2)cc1OC (stereo not drawn)	8.99%
Cn1cnnc1SCC(=O)Nc1ccc(S(=O)(=O)N2CCOCC2)cc1	6.46%
CN1C(=O)C(=Cc2ccc(N(C)C)c([N+](=O)[O-])c2)C(=O)N(C)C1=O	2.88%
COC(=O)CCC(=O)N1CCCC(CO)(Cc2ccccc2)C1 (stereo not drawn)	9.27%
Cc1ccc(Cl)c(OCC(=O)Nc2ccccc2C(=O)NC2CC2)c1	11.7%
Cc1ccc(NC(=O)COC(=O)C2CSC3(C)CCC(=O)N23)cc1S(=O)(=O)N1CCOCC1 (stereo not drawn)	0.667%
CC(=O)Nc1sc2c(c1CN1CCN(C)CC1)CCCC2	4.81%
CSc1ncccc1C(=O)OCC(=O)N1CC(=O)Nc2ccccc21	10.4%
COc1ccc(-c2nnc(NC(=O)c3ccc4c(c3)OCCO4)o2)cc1	13.2%
CC(NC(=O)c1cc(-c2ccccc2)nc2ccccc12)C1CCCO1 (stereo not drawn)	6.97%
Nc1nonc1-n1nnc(C(=O)N/N=C/c2ccccc2O)c1CN1CCCC1	10.8%

Compound	hERG current change (%, negative = inhibition) at 1uM
COCCCn1cnc2c(c1=O)c1nc3ccccc3nc1n2-c1ccc(C)cc1	8.35%
C=CCNC(=O)c1ccccc1NC(=O)Cc1ccccc1[N+](=O)[O-]	3.13%
O=C1c2nc3ccccn3c2C(=O)N1Cc1ccccc1	11.8%
O=C(CSc1n[nH]c(=O)[nH]c1=O)Nc1ccccc1C(=O)c1ccccc1	10.5%
CCOC(=O)c1c(C)[nH]c(C(=O)CSc2nnc(C3CC3)n2N)c1C	9.07%
CC(=O)Nc1nc(C)c(-c2csc([NH2+]c3ccc(S(N)(=O)=O)cc3)n2)s1.[Br-]	9.67%
CCN(CC)C(=O)c1ccccc1NS(C)(=O)=O	2.77%
COc1ccccc1N=Nc1c(O)[nH]c(=S)[nH]c1=O	16%
CC(=O)N1N=C(c2ccc3ccccc3c2)OC12CCCC2	5.76%
Cc1ccc(C(=O)NCCCNC(=O)c2ccccc2F)cn1	14%
Cc1cc(C)c(NC(=O)C(C)(C)C)c(Cl)c1	0.175%
O=C(c1cc(COc2ccc(F)cc2Cl)on1)N1CCCCCC1	14.1%
Cc1cccc(OCCC(=O)Nc2ccc(F)c(F)c2)c1	6.44%
Cc1cc(SCC(=O)NN)c2cc(Br)ccc2n1	11.2%
CC(=O)c1ccc(N2CCN(CCC#N)CC2)c(F)c1	4.12%
CCn1c(NCc2ccccc2Cl)nc2ccccc21	12.9%
Cc1nc(NC(=O)COC(=O)c2cc3c(s2)CCC(C)C3)c(Cl)cc1Cl (stereo not drawn)	6.35%
O=C(COC(=O)c1cc(Cl)ccc1Cl)Nc1ccc2[nH]c(=O)[nH]c2c1	-4.65%
C[C@H]1C=C(C(=O)NCc2ccccc2)O[C@@H](OCc2ccc(CO)cc2)C1	-0.188%
Cc1cc(N2CCC(C)CC2)n2ncc(-c3ccccc3)c2n1	3.83%
CC(Oc1ccccc1)C(=O)N=C1SC2CS(=O)(=O)CC2N1c1ccccc1 (stereo not drawn)	35.1%
COCC(C)OC(=O)/C(C#N)=C\c1coc2ccc(C)cc2c1=O (stereo not drawn)	3.46%
O=C(c1ccc(C(F)(F)F)cc1)C1CCCN(C(=O)CCc2ccncc2)C1 (stereo not drawn)	-31.1%

Compound	hERG current change (%, negative = inhibition) at 1uM
O=C(C(=S)N1CCOCC1)c1c[nH]c2ccccc12	2.69%
O=C(O)CC(NS(=O)(=O)c1ccc(Br)cc1)c1ccco1 (stereo not drawn)	-5.87%
CCn1c(-c2ccc(F)cc2)cnc1SCC(=O)N1CCc2ccccc21	7.5%
O=C(Nc1ccccc1)NC1CS(=O)(=O)CC1O (stereo not drawn)	6.66%
CNC(=O)c1ccccc1Sc1ccccc1CO	12.4%
CCn1cc(CN2CCc3c([nH]c4ccccc34)C2c2cccc(OC)c2OC)c(C)n1 (stereo not drawn)	13.3%
CCOC(=O)C1CCN(c2nc3c(C)cccn3c(=O)c2/C=C(\C#N)S(=O)(=O)c2ccccc2)CC1	2.92%
Cc1cc(C)c(S(=O)(=O)Nc2ncccc2C)c(C)c1	8.56%
COc1ccc(C(CNC(=O)c2ccc(Cl)c(S(=O)(=O)N3CCCC3)c2)N2CCCC2)cc1 (stereo not drawn)	-32.1%
NS(=O)(=O)c1ccc(NC(=S)NC(=O)c2ccc(Br)o2)cc1	7.02%
Cc1cc(C(=O)COC(=O)/C=C/c2cccc(F)c2)c(C)n1C	9.77%
Cc1[nH]c2ccccc2c1C1=NNC(=Nc2ccc(F)cc2)SC1	12%
O=C(NC1(C(F)(F)F)NC(=O)N(c2ccc(F)cc2)C1=O)c1ccncc1 (stereo not drawn)	-10.4%
O=C(Cc1ccc(Cl)cc1Cl)NC1CCCCCC1	-0.129%
O=C(CN1C(=O)CCSc2ccccc21)NC1CCCCC1	21.3%
O=C(C1CCCO1)N1CCN(C(=S)Nc2ccc(Cl)c(Cl)c2)CC1 (stereo not drawn)	10.4%
COc1ccc(CC(=O)Nc2ccccc2N2CCCC2)cc1	1.91%
Cc1cc2c3c(c1C)C1(C(=O)N3C(C)(C)CC2C)C(C#N)=C(N)OC2=C1C(=O)CC(C)(C)C2 (stereo not drawn)	6.63%
CCOc1ccccc1CN1CCN(Cc2nc3ccccc3s2)CC1CCO (stereo not drawn)	-67.7%
COc1ccc(O)c(C(=O)c2cc(SCC(=O)O)c3nc4sc5c(c4c(=O)n3c2)CCCC5)c1	7.36%
CC1CCCC(NC(=O)CSc2nnc(N)s2)C1C (stereo not drawn)	6.29%
